Reference: ChEMBL document CHEMBL4888484, “Replenishing the malaria drug discovery pipeline: Screening and hit evaluation of the MMV Hit Generation Library 1 (HGL1) against asexual blood stage Plasmodium falciparum ,using a nano luciferase reporter read-out” (2022)
Hit rate of the full screen: of about 150,000 compounds, about 540 (0.36%) showed an effect of 50% or more. This is one part of the list.

tested on: Plasmodium falciparum; test: Primary screen in NF54 nanoGlo assay, in single point, at 2uM, 72h; a lower Z score goes with more inhibition; type: functional, Erythrocyte; details: timepoint 72 hour

| Structure (SMILES) | % Inhibition [%] | Z score |
| --- | --- | --- |
| N#Cc1nc2c(S(=O)(=O)c3ccccc3)c(N)n(Cc3ccc(F)cc3)c2nc1C#N | -19 | 3.03 |
| Cc1cc(C(=O)N2CCOCC2)ccc1NCc1nccn1C | -9 | 1.15 |
| CCc1ccc(-c2n[nH]c(=O)c3c2CCCC3)cc1S(=O)(=O)N1CCCCCC1 | -7 | 0.83 |
| CN(C)c1nc(N[C@H]2CCS(=O)(=O)C2)ncc1F | -3 | 0.33 |
| CN(Cc1nncn1C)C(=O)CCCc1cn[nH]c1 | -9 | 1.28 |
| CCn1ccc(C(=O)N[C@@H](C)c2nc(C(C)C)no2)cc1=O | 1 | -0.13 |
| Cc1sc(C(=O)O)cc1S(=O)(=O)N1CCN(c2cc(C3CC3)n[nH]2)CC1 | -15 | 1.88 |
| CC(C)n1nccc1C(=O)N1CCOC[C@H]1c1ncn(CC(F)(F)F)n1 | -9 | 1.08 |
| Cc1cc(NC(=O)COc2ccccc2)nn1-c1ccc(Cl)cc1 | -3 | 0.32 |
| O=C(CCC1CCCC1)Nc1cccc(C(=O)O)c1 | -3 | 0.63 |
| CCN(C)c1ccccc1NCc1cccnc1C | -4 | 0.38 |
| Cc1ccc(S(=O)(=O)N2c3ccccc3N(C(=O)c3ccccc3)[C@@H]2c2ccc(N(C)C)cc2)cc1 | 30 | -3.35 |
| CCc1cc(C(=O)NCc2cn(C)nc2C)c2c(C3CC3)nn(-c3ccc(F)cc3)c2n1 | 36 | -4.89 |
| c1ccc2c(O[C@H]3CCOC3)nccc2c1 | -3 | 0.57 |
| O=C(CCn1cncn1)N1CCCCCCC1 | -2 | 0.23 |
| O=S(=O)(c1ccccc1)N1CC(n2cnnc2[C@@H]2CCCO2)C1 | -4 | 0.61 |
| Cc1ccc2nc(C(=O)Nc3ccc(OC(F)(F)F)cc3)cc(N3CCCCC3)c2c1 | -11 | 1.35 |
| CCCNC(=O)N(CCN1CCOCC1)CC(=O)N1N=C(c2cccc(OC)c2)C[C@H]1c1ccc2c(c1)OCO2 | -14 | 2.23 |
| Cc1ccc(S(=O)(=O)NC[C@H]2CC(=O)N(Cc3ccc(F)cc3)C2)c(C)c1 | -12 | 1.4 |
| CCOC1CC(CO)(NC(=O)Cc2c(C)nn(C)c2C)C1(C)C (stereo not drawn) | -8 | 1 |
| O=S1(=O)CC2Nc3ccccc3NC2C1 (stereo not drawn) | -9 | 1.14 |

| Structure (SMILES) | % Inhibition [%] | Z score |
| --- | --- | --- |
| O=C(O)CNc1ccccc1C(=O)NC[C@@H]1C[C@@H]2C=C[C@@H]1C21CC1 | 6 | -0.89 |
| Cc1n[nH]c(C)c1S(=O)(=O)N1CCCN(C(=O)COc2ccccc2)CC1 | -6 | 1.17 |
| O=C(c1ccoc1)N1CCC[C@H](c2nnc3n2CCN(C2CCCC2)C3)C1 | -7 | 1.4 |
| CC(=O)Nc1ccc(Oc2ccc(-c3noc(-c4cccc(NC(C)=O)c4C)n3)cc2)cc1 | -6 | 0.99 |
| OC1(CN2CCc3ccccc3C2)CCCC1 | -19 | 3.54 |
| Cc1cccc(-n2nc(CC(N)=O)nc2[C@H]2CCOC2)n1 | -1 | 0.14 |
| CN1C[C@@H]2CN(C(=O)c3cc(O)c4ccccc4c3)C[C@@H]2C1 | 36 | -3.68 |
| CC(C)c1nc(CC(=O)N2CCC[C@H]2c2ccncc2)cs1 | 0 | -0.04 |
| C[C@@H](Cc1nc(-c2nccn2C)cs1)n1cc(Cl)cn1 | -2 | 0.26 |
| COc1ccc(-c2cc(C(F)F)nc(N(C)Cc3c(C)nn(C)c3C)n2)cc1OC | 28 | -3.15 |
| Cc1cccn2cc(C(=O)N[C@H](c3cnn(C)c3)C(F)(F)F)cc12 | 5 | -0.85 |
| CN1CCN(C(=O)c2cc(O)ccn2)Cc2cccnc21 | 4 | -0.69 |
| COc1cccc(CN2CCC[C@@](O)(CNC3Cc4ccccc4C3)C2=O)c1 | -19 | 1.66 |
| CN(Cc1cc(C#N)cs1)C(=O)c1ccn(CC(F)F)n1 | -6 | 0.96 |
| Cc1noc(C)c1CN(C)C1CC(OC(C)(C)C)C1 (stereo not drawn) | -5 | 0.66 |
| OCc1ccc(NCc2nccn2C2CC2)nc1 | 1 | -0.13 |
| CC1(C)C[C@H](CNC(=O)c2cc3n(n2)CCCC3=O)C(C)(C)O1 | -11 | 2.12 |
| CCOC(=O)Cc1c(C)nc2ncnn2c1N1CC[C@H]2CCCC[C@@H]2C1 | -9 | 1.25 |
| Cn1c(N2CCc3sccc3C2)c(C#N)c(=O)n(C)c1=O | 7 | -0.88 |
| CCOc1ccc(S(=O)(=O)N(C)Cc2ccccc2)cc1-c1nc(C)no1 | 0 | 0.04 |
| CCCNS(=O)(=O)c1ccc(-c2cc(C(F)(F)F)on2)o1 | -11 | 1.91 |

| Structure (SMILES) | % Inhibition [%] | Z score |
| --- | --- | --- |
| COc1ccc(OC)c(CNC(=O)CCc2nnc3c4cc(-c5cc(C)ccc5C)nn4ccn23)c1 | -5 | 0.77 |
| COc1ccc([C@H](CO)N(C)Cc2cn(C)c(=O)n(C)c2=O)cc1 | -8 | 1.07 |
| Cc1cc(C)c2c(c1)C(=O)[C@H](c1cc(O)c3ccccc3n1)C2=O | -12 | 1.92 |
| CN(c1nc2c(c(N3CCOCC3)n1)CN(C(=O)Cc1ccccc1)CC2)C1CCCCC1 | -5 | 0.75 |
| O=C(O)C1CN(C(=O)NC(CCc2ccccc2)C(F)(F)F)CCO1 (stereo not drawn) | -14 | 1.53 |
| CC(C)OCc1cc(C(=O)N2CC[C@H](N)C(C)(C)C2)ccc1F | -11 | 1.24 |
| c1cncc(CN2CCc3[nH]cnc3[C@H]2c2cnc(-c3ccco3)nc2)c1 | -2 | 0.39 |
| COc1ccccc1CCN(C)c1cnccn1 | -5 | 0.74 |
| CCc1ccccc1OC(C(=O)N1CCCC2(CNC(=O)C2)C1)c1ccccc1 (stereo not drawn) | -3 | 0.33 |
| Cc1ccc(C#N)c(NCCCc2nnc3ccccn23)n1 | -10 | 1.21 |
| Cc1nc[nH]c1CN(C)Cc1nc(CC(C)C)no1 | -15 | 2.98 |
| Cc1ccnc(NCCNc2cc([C@H]3C[C@@H](O)C3)nc(N)n2)c1 | -5 | 0.79 |
| COc1ccc(C)cc1NC(=O)N(C)Cc1nc2cc(C(=O)NC(C)C)ccc2n1C | -5 | 0.56 |
| O=C(c1ccccc1F)N(Cc1ccc2c(c1)OCO2)Cc1c(-c2ccccc2)noc1N1CCCC1 | 1 | -0.08 |
| CC[C@H](NC1CC=CC1)c1ccccc1O | -11 | 1.6 |
| Cc1ccc(N2CCC(C(=O)N3CCN(c4ccc(F)c(Cl)c4)CC3)CC2)nn1 | -7 | 1.26 |
| C#CCCC1(CCC(=O)N2CC[C@@]3(C2)C(=O)Nc2ccccc23)N=N1 | -2 | 0.21 |
| O=C(N[C@H]1CCCc2ccccc21)c1cc(OCc2ccccc2)ncn1 | -1 | 0.19 |
| Cc1noc(C)c1C(C)(C)NC(=O)CCn1ccnn1 | 29 | -3.32 |
| Cc1[nH]nc(O)c1C(c1ccccc1)c1c(O)n[nH]c1C | -5 | 0.59 |
| CONC(=O)C(=O)Nc1c(F)cccc1Br | -39 | 4.57 |

| Structure (SMILES) | % Inhibition [%] | Z score |
| --- | --- | --- |
| C[C@H](NC(=O)Nc1ccn(CCCC#N)n1)C1CCOCC1 | -8 | 0.65 |
| O=C(N[C@H]1CCOC[C@@H]1OCc1ccccc1)c1n[nH]c2c1CCCC2 | -14 | 2.3 |
| CCCN1C(=O)c2cc(S(=O)(=O)Nc3ccc(F)c(C)c3)ccc2Oc2cccnc21 | -4 | 0.64 |
| Cc1ccc(NC(=O)Cn2cnc3c(-c4ccc(F)cc4)nsc3c2=O)cc1C | -4 | 0.62 |
| CCOc1ccccc1[C@H]1Oc2ccccc2-n2c(-c3ccccc3C)c3c(=O)n(C)c(=O)n(C)c3c21 | -4 | 0.56 |
| CC(C)(C)C1CNC(=O)C1C(=O)Nc1cccc(O)c1 (stereo not drawn) | 6 | -1.11 |
| CC[C@@]12CCCN1C(=O)N(Cc1cnc(CC(C)C)s1)C2=O | -3 | 0.38 |
| O=C1CN(C(=O)c2ccc(-c3nc4ccccc4s3)s2)CCN1 | -25 | 2.49 |
| Cc1noc(C)c1[C@@H](C)C(=O)Nc1nc(C(C)C)cs1 | -5 | 0.38 |
| Cc1cccc(C)c1NC(=O)[C@H](C)NC1=NCCCCC1 | -22 | 2.57 |
| Clc1cccc(-c2cn(CCN3CCCC3)nn2)c1Cl | -10 | 1.95 |
| COc1ccc(N2CCN(C(=O)CN3C(=O)[C@H]4CCCC4=Nc4ccccc43)CC2)cc1 | 5 | -0.61 |
| Cn1ccnc1CN(CCO)C(=O)Nc1ccc(C2CCCCC2)cc1 | -3 | 0.43 |
| Cc1csc(CCCCNC(=O)C2CCN(c3oc(C)nc3C#N)CC2)n1 | -14 | 1.92 |
| CC1=NN(c2ccccc2)C(=O)C12Cc1ccccc1N1CCC(Cc3ccccc3)CC12 (stereo not drawn) | 8 | -0.98 |
| CC(C)C(=O)N1CCC(NCc2cc3cc(F)ccc3o2)C(C)C1 (stereo not drawn) | -18 | 1.54 |
| CN(C)CCN(C(=O)CCCN1C(=O)c2ccccc2C1=O)c1cccc(Cl)c1Cl | -9 | 1.14 |
| CCc1nc(CN(C)C[C@H](C)C(=O)OC)cs1 | -9 | 1.42 |
| COCC[C@H]1CN(Cc2nonc2C)CCO1 | -10 | 1.65 |
| Cc1nn(CCO)c(C)c1CN1CCC(c2cc[nH]n2)CC1 | -6 | 0.71 |
| CCCC1(CNC(=O)[C@H](C)OC)CCC1 | -4 | 0.46 |
